Laboratory results taken from the supplement of paper PMC9151546.
Many values rest on one well or one pass, so single values are uncertain.

Legend:
[1] = system: CHO-K1; test: hypodiploid nuclei frequency (% of nucleated events); higher = more hypodiploid events (aneugenic)
Protocol: (§1)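 Flow-cytometric in vitro micronucleus assay (Litron MicroFlow) in CHO-K1 cells in 96-well plates, 19 concentrations (4.5-200 µM, n=1 per concentration). Without S9, cells were exposed for 24 h and sampled at 48 h. With Aroclor 1254-induced rat liver S9, cells were exposed for 3-4 h and sampled at 27-28 h. Read-outs are %MN and %hypodiploid nuclei relative to nucleated events, and relative survival as the nuclei-to-bead ratio versus the 1% DMSO vehicle control (x100).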

[2] = system: CHO-K1; test: relative survival (nuclei to bead ratio vs DMSO control) (% of vehicle control); higher = more surviving cells
Protocol: as §1

[3] = system: CHO-K1; test: micronucleus frequency (% of nucleated events); higher = more micronuclei (genotoxic)
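For hypodiploid nuclei frequency (% of nucleated events) in this document: hypodiploid nuclei gated on a flow cytometer with 488 nm excitation after SYTOX Green staining, cultures at 37 °C, positive controls vinblastine without S9 and cyclophosphamide with S9.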
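For micronucleus frequency (% of nucleated events) in this document: cells lysed with nuclei stained by SYTOX Green, then micronucleus-gated events counted against nucleated events by flow cytometry with 488 nm excitation.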
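For relative survival (nuclei to bead ratio vs DMSO control) in this document: Lysed-cell nuclei stained with SYTOX Green and counted against counting beads by flow cytometry at 488 nm excitation, with vinblastine (no S9) and cyclophosphamide (plus S9) as positive controls.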

O=Cc1ccco1 [Furfural]
Conditions	hypodiploid nuclei frequency, [1] [%]	micronucleus frequency, [3] [%]	relative survival, [2]
concentration: 4.53 (µM), S9 metabolic activation: with S9, exposure time: 3-4 hours	0.38	1.94	98.9
concentration: 4.53 (µM), S9 metabolic activation: without S9, exposure time: 24 hours	0.48	1.52	96.8
concentration: 5.66 (µM), S9 metabolic activation: with S9, exposure time: 3-4 hours	0.36	1.64	93.3
concentration: 5.66 (µM), S9 metabolic activation: without S9, exposure time: 24 hours	0.64	1.68	118
concentration: 7.07 (µM), S9 metabolic activation: with S9, exposure time: 3-4 hours	0.32	1.94	99.9
concentration: 7.07 (µM), S9 metabolic activation: without S9, exposure time: 24 hours	0.64	1.22	97.3
concentration: 8.84 (µM), S9 metabolic activation: with S9, exposure time: 3-4 hours	0.34	2.06	93.3
concentration: 8.84 (µM), S9 metabolic activation: without S9, exposure time: 24 hours	0.7	1.64	114
concentration: 11.1 (µM), S9 metabolic activation: with S9, exposure time: 3-4 hours	0.28	2.1	81.2
concentration: 11.1 (µM), S9 metabolic activation: without S9, exposure time: 24 hours	0.62	1.4	105
concentration: 13.8 (µM), S9 metabolic activation: with S9, exposure time: 3-4 hours	0.22	1.9	89.7
concentration: 13.8 (µM), S9 metabolic activation: without S9, exposure time: 24 hours	0.48	1.64	88.6
concentration: 17.3 (µM), S9 metabolic activation: with S9, exposure time: 3-4 hours	0.28	2.24	104
concentration: 17.3 (µM), S9 metabolic activation: without S9, exposure time: 24 hours	0.76	2	109
concentration: 21.6 (µM), S9 metabolic activation: with S9, exposure time: 3-4 hours	0.24	1.86	115
concentration: 21.6 (µM), S9 metabolic activation: without S9, exposure time: 24 hours	0.54	1.54	103
concentration: 27 (µM), S9 metabolic activation: with S9, exposure time: 3-4 hours	0.28	1.38	105
concentration: 27 (µM), S9 metabolic activation: without S9, exposure time: 24 hours	0.74	1.74	101
concentration: 33.7 (µM), S9 metabolic activation: with S9, exposure time: 3-4 hours	0.26	1.38	86.8
concentration: 33.7 (µM), S9 metabolic activation: without S9, exposure time: 24 hours	0.48	1.78	144
concentration: 42.2 (µM), S9 metabolic activation: with S9, exposure time: 3-4 hours	0.36	2.12	99.2
concentration: 42.2 (µM), S9 metabolic activation: without S9, exposure time: 24 hours	0.48	1.32	129
concentration: 52.7 (µM), S9 metabolic activation: with S9, exposure time: 3-4 hours	0.2	2.34	79.6
concentration: 52.7 (µM), S9 metabolic activation: without S9, exposure time: 24 hours	0.46	1.64	115
concentration: 65.9 (µM), S9 metabolic activation: with S9, exposure time: 3-4 hours	0.1	2.12	75.8
concentration: 65.9 (µM), S9 metabolic activation: without S9, exposure time: 24 hours	0.7	1.54	101
concentration: 82.3 (µM), S9 metabolic activation: with S9, exposure time: 3-4 hours	0.32	2.06	82.3
concentration: 82.3 (µM), S9 metabolic activation: without S9, exposure time: 24 hours	0.5	2.16	133
concentration: 103 (µM), S9 metabolic activation: with S9, exposure time: 3-4 hours	0.24	3.58	74.1
concentration: 103 (µM), S9 metabolic activation: without S9, exposure time: 24 hours	0.72	1.78	97.8
concentration: 129 (µM), S9 metabolic activation: with S9, exposure time: 3-4 hours	0.18	1.76	109
concentration: 129 (µM), S9 metabolic activation: without S9, exposure time: 24 hours	1.08	1.98	98.3
concentration: 161 (µM), S9 metabolic activation: with S9, exposure time: 3-4 hours	0.48	3.26	77.2
concentration: 161 (µM), S9 metabolic activation: without S9, exposure time: 24 hours	0.84	2.42	132
concentration: 201 (µM), S9 metabolic activation: with S9, exposure time: 3-4 hours	0.16	2.88	83.9
concentration: 201 (µM), S9 metabolic activation: without S9, exposure time: 24 hours	1.04	2.56	112

O=c1c(-c2ccc(O)cc2)coc2cc(O)cc(O)c12 [Genistein]
Conditions	hypodiploid nuclei frequency, [1] [%]	micronucleus frequency, [3] [%]	relative survival, [2]
concentration: 4.5 (µM), S9 metabolic activation: with S9, exposure time: 3-4 hours	0.18	1.68	101
concentration: 4.5 (µM), S9 metabolic activation: without S9, exposure time: 24 hours	0.6	2.66	130
concentration: 5.63 (µM), S9 metabolic activation: with S9, exposure time: 3-4 hours	0.26	1.76	110
concentration: 5.63 (µM), S9 metabolic activation: without S9, exposure time: 24 hours	0.86	2.52	93.2
concentration: 7.04 (µM), S9 metabolic activation: with S9, exposure time: 3-4 hours	0.2	1.6	109
concentration: 7.04 (µM), S9 metabolic activation: without S9, exposure time: 24 hours	0.58	2.26	98.7
concentration: 8.8 (µM), S9 metabolic activation: with S9, exposure time: 3-4 hours	0.32	1.82	103
concentration: 8.8 (µM), S9 metabolic activation: without S9, exposure time: 24 hours	0.78	2.56	97.1
concentration: 11 (µM), S9 metabolic activation: with S9, exposure time: 3-4 hours	0.3	2.26	109
concentration: 11 (µM), S9 metabolic activation: without S9, exposure time: 24 hours	0.68	2.78	93.9
concentration: 13.7 (µM), S9 metabolic activation: with S9, exposure time: 3-4 hours	0.66	3.78	86.9
concentration: 13.7 (µM), S9 metabolic activation: without S9, exposure time: 24 hours	0.84	5.02	76.2
concentration: 17.2 (µM), S9 metabolic activation: with S9, exposure time: 3-4 hours	1.48	7.84	67.1
concentration: 17.2 (µM), S9 metabolic activation: without S9, exposure time: 24 hours	0.74	4.14	79.9
concentration: 21.5 (µM), S9 metabolic activation: with S9, exposure time: 3-4 hours	1.47	10.3	64.1
concentration: 21.5 (µM), S9 metabolic activation: without S9, exposure time: 24 hours	0.82	4.56	74.8
concentration: 26.8 (µM), S9 metabolic activation: with S9, exposure time: 3-4 hours	–	–	33
concentration: 26.8 (µM), S9 metabolic activation: without S9, exposure time: 24 hours	0.52	5.34	70.4
concentration: 33.6 (µM), S9 metabolic activation: with S9, exposure time: 3-4 hours	–	–	28.1
concentration: 33.6 (µM), S9 metabolic activation: without S9, exposure time: 24 hours	0.48	9.42	79.9
concentration: 41.9 (µM), S9 metabolic activation: with S9, exposure time: 3-4 hours	–	–	14.6
concentration: 41.9 (µM), S9 metabolic activation: without S9, exposure time: 24 hours	0.5	11.7	55.9
concentration: 52.4 (µM), S9 metabolic activation: with S9, exposure time: 3-4 hours	–	–	11.1
concentration: 52.4 (µM), S9 metabolic activation: without S9, exposure time: 24 hours	0.66	14.1	52.5
concentration: 65.5 (µM), S9 metabolic activation: with S9, exposure time: 3-4 hours	–	–	12.6
concentration: 65.5 (µM), S9 metabolic activation: without S9, exposure time: 24 hours	0.39	11.8	40.5
concentration: 81.9 (µM), S9 metabolic activation: with S9, exposure time: 3-4 hours	–	–	9.21
concentration: 81.9 (µM), S9 metabolic activation: without S9, exposure time: 24 hours	0.57	8.01	41.3
concentration: 102 (µM), S9 metabolic activation: with S9, exposure time: 3-4 hours	–	–	10.3
concentration: 102 (µM), S9 metabolic activation: without S9, exposure time: 24 hours	0.38	5.35	48.1
concentration: 128 (µM), S9 metabolic activation: with S9, exposure time: 3-4 hours	–	–	7.86
concentration: 128 (µM), S9 metabolic activation: without S9, exposure time: 24 hours	–	–	33.4
concentration: 160 (µM), S9 metabolic activation: with S9, exposure time: 3-4 hours	–	–	9.73
concentration: 160 (µM), S9 metabolic activation: without S9, exposure time: 24 hours	–	–	30.4
concentration: 200 (µM), S9 metabolic activation: with S9, exposure time: 3-4 hours	–	–	11.5
concentration: 200 (µM), S9 metabolic activation: without S9, exposure time: 24 hours	–	–	34

Cc1occc(=O)c1O [Maltol]
Conditions	hypodiploid nuclei frequency, [1] [%]	micronucleus frequency, [3] [%]	relative survival, [2]
concentration: 4.5 (µM), S9 metabolic activation: with S9, exposure time: 3-4 hours	0.2	1.72	115
concentration: 4.5 (µM), S9 metabolic activation: without S9, exposure time: 24 hours	0.44	1.74	88.6
concentration: 5.63 (µM), S9 metabolic activation: with S9, exposure time: 3-4 hours	0.3	1.4	106
concentration: 5.63 (µM), S9 metabolic activation: without S9, exposure time: 24 hours	0.74	1.84	98.8
concentration: 7.04 (µM), S9 metabolic activation: with S9, exposure time: 3-4 hours	0.1	1.5	129
concentration: 7.04 (µM), S9 metabolic activation: without S9, exposure time: 24 hours	0.8	1.64	97.3
concentration: 8.8 (µM), S9 metabolic activation: with S9, exposure time: 3-4 hours	0.24	1.42	98.9
concentration: 8.8 (µM), S9 metabolic activation: without S9, exposure time: 24 hours	0.74	2.1	96.3
concentration: 11 (µM), S9 metabolic activation: with S9, exposure time: 3-4 hours	0.24	1.28	110
concentration: 11 (µM), S9 metabolic activation: without S9, exposure time: 24 hours	0.62	1.9	98.3
concentration: 13.7 (µM), S9 metabolic activation: with S9, exposure time: 3-4 hours	0.3	1.36	104
concentration: 13.7 (µM), S9 metabolic activation: without S9, exposure time: 24 hours	0.86	2.3	110
concentration: 17.2 (µM), S9 metabolic activation: with S9, exposure time: 3-4 hours	0.26	1.3	121
concentration: 17.2 (µM), S9 metabolic activation: without S9, exposure time: 24 hours	0.96	2.44	100
concentration: 21.5 (µM), S9 metabolic activation: with S9, exposure time: 3-4 hours	0.36	1.64	104
concentration: 21.5 (µM), S9 metabolic activation: without S9, exposure time: 24 hours	0.72	1.72	105
concentration: 26.8 (µM), S9 metabolic activation: with S9, exposure time: 3-4 hours	0.22	1.24	98.7
concentration: 26.8 (µM), S9 metabolic activation: without S9, exposure time: 24 hours	0.88	1.52	88.6
concentration: 33.6 (µM), S9 metabolic activation: with S9, exposure time: 3-4 hours	0.28	1.86	101
concentration: 33.6 (µM), S9 metabolic activation: without S9, exposure time: 24 hours	0.92	1.72	86.6
concentration: 41.9 (µM), S9 metabolic activation: with S9, exposure time: 3-4 hours	0.32	1.28	113
concentration: 41.9 (µM), S9 metabolic activation: without S9, exposure time: 24 hours	0.74	1.48	93
concentration: 52.4 (µM), S9 metabolic activation: with S9, exposure time: 3-4 hours	0.22	1.36	92.9
concentration: 52.4 (µM), S9 metabolic activation: without S9, exposure time: 24 hours	0.78	1.48	73.2
concentration: 65.5 (µM), S9 metabolic activation: with S9, exposure time: 3-4 hours	0.4	1.54	126
concentration: 65.5 (µM), S9 metabolic activation: without S9, exposure time: 24 hours	0.92	1.5	76.7
concentration: 81.9 (µM), S9 metabolic activation: with S9, exposure time: 3-4 hours	0.32	1.78	114
concentration: 81.9 (µM), S9 metabolic activation: without S9, exposure time: 24 hours	0.98	1.88	79.6
concentration: 102 (µM), S9 metabolic activation: with S9, exposure time: 3-4 hours	0.36	1	111
concentration: 102 (µM), S9 metabolic activation: without S9, exposure time: 24 hours	1.18	1.68	92.1
concentration: 128 (µM), S9 metabolic activation: with S9, exposure time: 3-4 hours	0.24	1.44	121
concentration: 128 (µM), S9 metabolic activation: without S9, exposure time: 24 hours	1.56	1.96	85.8
concentration: 160 (µM), S9 metabolic activation: with S9, exposure time: 3-4 hours	0.26	1.5	129
concentration: 160 (µM), S9 metabolic activation: without S9, exposure time: 24 hours	1.38	2.4	100
concentration: 200 (µM), S9 metabolic activation: with S9, exposure time: 3-4 hours	0.36	1.34	125
concentration: 200 (µM), S9 metabolic activation: without S9, exposure time: 24 hours	1.92	2.64	89.9
